Measured values taken from a collection of fitness landscapes (doi:10.1016/j.celrep.2020.107928).
Over roughly 81,000 sequences, “one-hybrid fitness for binding NBS DNA” has its median near -0.1; the highest 2% begin near 0.36. Some of the results follow.

B1: Caulobacter ParB omega fusion; a variant is named by its letters at X, in order, B8GW30 (parent)
chain: MESVVVGEPGMSEGRRGLGRGLSALLGEVDAAPAQAPGEQLGGSREAPIEILQRNPDQPRRTFREEDLEDLSNSIREKGVLQPILVRPSPDTAGEYQIVAGERAWRAAQRAGLKTVPIMVRELDDLAVLEIGIIENVQRADLNVLEEALSYKVLMEKFERTQENIAQTIGKSXSHVANXMRLLXLPDEVQSYLVSGELTAXHARAIAAAADPVALAKQIIEGGLSVRETEALARKAPNLSAGKSKGGRPPRVKDTDTQALESDLSSVLGLDVSIDHRGSTGTLTITYATLEQLDDLCNRLTRGI

Variants of: B1
Assay: one-hybrid fitness for binding NBS DNA (the Noc-binding site; scaled: cognate 1, non-cognate 0); higher = stronger binding
Details: with NBS DNA site
How it was run: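 Selection: bacterial one-hybrid in E. coli USO, HIS3 reporter with the site 19 bp from the promoter, 48 hours at 37°C on M9-minus-histidine plus 0.1 mM IPTG and 5 mM 3-AT. Libraries were Caulobacter ParB with four randomised specificity codons, sequenced on Illumina before and after selection. Fitness is the rescaled log change in variant-to-wild-type read ratio, anchored to the cognate and non-cognate sites.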

one-hybrid fitness for binding NBS DNA, 0.248:
VQRR

one-hybrid fitness for binding NBS DNA, 0.269:
TRWT

one-hybrid fitness for binding NBS DNA, 0.256:
MVKR

one-hybrid fitness for binding NBS DNA, 0.219:
QIER

one-hybrid fitness for binding NBS DNA, 0.462:
RLHS

one-hybrid fitness for binding NBS DNA, 0.242:
RFAR

one-hybrid fitness for binding NBS DNA, 0.298:
FGVN

one-hybrid fitness for binding NBS DNA, 0.24:
RTTH

one-hybrid fitness for binding NBS DNA, ≤ 0.2:
PSHV
SLSC
NCPD
QKFW
RAVD
DIYP
RMVG
LPSC
HRGA
NTKW
LNMG
EHIS
RQQQ
NNGD
ESKC
ARLY
EVMC
ADQN
DRAQ
IWNR
RWWR
RDIT
NPKI
NSFV
KRGN
DPIT
KILS
TQCK
FLWG
RSSL
LWTR
EPVN
HTSL
YPDT
KTWD
KAGM
ACDR
QGLS
STQW
CYNK
LGQN
DFFV
VQDV
ADRS
LVYG
STTP
VYRT
VHFM
TAHW
CLSG
GAEW
PRQI
YSKC
MNSV
GVYI
HLWR
TYVK
PHHK
APVT
IPMT
HTNA
YSEM
QMCP
IYHS
QNTY
RAWM
HNEG
IVGL
VMYD
PDAS
LNCG
KHRG
RPDG
LQRT
SGNS
MQNP
RLGI
ARCE
NWRL
PGMN
RPMD
ESLD
CRCK
NNPG
CASG
ARPW
ACHS
TPNA
QAEN
MTVR
WAEV
QPCR
SVQS
MTSM
WRMR
CQHG
ITFK
KYND
EHPQ
PGEW
LPFK
WTCT
DRRD
SRVQ
AVIG
LQPK
SAAC
QELL
LDDV
LPPR
TTGM
RNCW
LRDA
EMAW
VAQG
TILS
AIPY
HVKK
NTWR
AYPG
SHIV
YHGP
ASIS
SQER
SVTL
TEHG
MYDS
QVAC
MQAR
YHKA
PCTE
SGQW
TREM
PLYY
IQNG
REYD
WFRY
LHNG
QWTV
IKRY
HTFS
VGHS
RLDW
IAER
ITHG
WLYS
YKHG
YGSR
KEYR
IIRP
HLMV
IYKA
SPRY
HKQR
DSNL
RLYW
YIKS
TREV
CPAV
DVAG
TLPF
GKYT
PRNY
NVPV
LCYR
TIKL
TTIN
VKVQ
IQAD
FPRN
HAAT
FGQT
LKLD
FSML
IPTT
PHHM
WQRT
PQTR
MGHQ
LFKI
WCKK
YIPR
YGMS
VSSY
LTPS
MTVE
FHGL
